# Measurements from PubChem BioAssay AID1347071 (National Center for Advancing Translational Sciences (NCATS), 2019).
# The whole screen tested about 410,000 compounds, of which about 260 (0.063%) were called active. Inconclusive means that the source gave no clear call. Such entries were picked first, then a sample of the others. The call rests on the fitted dose curve; in most records, active means well fitted activation curve with a large enough effect; inconclusive means small, poorly fitted or top-dose-only effect; inactive means no such curve, though single readings can be large or run the other way. No potency is given beside an inconclusive call; the fits are too rough.
# Assay: qHTS for compounds that reverse cellular toxicity of Amyloid beta (A-beta) peptide in yeast: Primary Screen; further: nearly all actives have a fitted effect of over 55% in size
# Settings: yeast expressing A-beta42, growth rescue, OD600, 48 h; growth rescue: at 46.1 µM (top of the series), 0% DMSO, 100% iron-clioquinol control
# In short: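 Yeast A-beta toxicity model in growth medium with pinned compounds, 48 h at 30 C; growth read as absorbance at 600 nm. Normalized to FeCl3/clioquinol equimolar mix (positive) and DMSO (negative).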
# Potency means the concentration at half of the fitted maximal effect; tags describe the fitted curve by direction and shape.
Structure (SMILES),Potency,growth rescue
FC(F)(F)c1cccc(NC(=S)Nc2cccc(NC(=S)Nc3cccc(C(F)(F)F)c3)n2)c1,"inconclusive [activator, single point]",
CCOC(=O)c1cccc(NC(=O)Cn2c(=O)c3cccn3c3ccccc32)c1,,inactive: -6.25%
COc1ccccc1CNC(=S)Nc1ccc(F)cc1,"inconclusive [activator, single point]",
Cc1cccc(NC(=O)CN2C(=O)C(c3ccccc3)=NC23CCC(C)CC3)c1 (centres undefined),,inactive: 10.5%
CC(C)(C)N(Cc1ccccc1)C(=O)COC(=O)C1CC(=O)N(Cc2ccccc2)C1 (centres undefined),,inactive: 2.22%
Cc1ccc(NC(=O)c2oc3ccccc3c2NC(=O)Cc2ccccc2)cc1,,inactive: 3.41%
Oc1ccc(/C=N/Nc2ncc(Br)cn2)c(O)c1,,inactive: 16.9%
CC(=Nc1ccccc1)C1=C(O)CSC1=O,,inactive: 7.72%
COc1cccc(Cn2c(=O)n(-c3cccc(Cl)c3)c(=O)c3c4c(sc32)CN(C(C)=O)CC4)c1,,inactive: 5.11%
CC(NC(=S)Nc1ccccc1OC(F)F)C(C)(C)C (centres undefined),"inconclusive [activator, single point]",
Cc1csc2nc3ccccc3c(=O)n12,,inactive: 12.6%
C=CCn1c(CCSCc2ccc(OC)c(C)c2)n[nH]c1=S,"inconclusive [activator, single point]",
Cc1nnc(Nc2ccc(F)cc2)c2ccccc12,,inactive: -11.4%
COc1ccc(-c2oc3ncn4nc(COc5cccc(C)c5C)nc4c3c2-c2ccc(OC)cc2)cc1,,inactive: -15.7%
C=CCOc1ccc(/C=N\NC(N)=S)cc1,"inconclusive [activator, single point]",
CC(C)c1ccc(NC(=O)CCCN2C(=S)NC(C)(C)CC2C)cc1 (centres undefined),"inconclusive [activator, single point]",
CN(C)C(=O)COc1ccc2ccc(=O)oc2c1,,inactive: -0.839%
O=C(Nc1ccnn1C1CCN(CC2CC=CCC2)CC1)c1ccccc1 (centres undefined),,inactive: -14.8%
CC(=O)c1ccc(NC(=S)N2CCC(Cc3ccccc3)CC2)cc1,"inconclusive [activator, partial curve, poor fit]",
O=C(CCCCl)NC(=S)Nc1cc(C(F)(F)F)ccc1N1CCOCC1,"inconclusive [activator, partial curve, poor fit]",
CC1CCCC(NC(=O)CNC(=S)N(Cc2ccccc2)Cc2cccs2)C1C (centres undefined),"inconclusive [activator, partial curve, poor fit]",
CCc1ccccc1N(CC)C(=O)c1c(C)oc2ncn(C)c(=O)c12,,inactive: -2.87%
COc1ccc(NC(=O)C2=C(C)C(=O)OC23CCC(C)CC3)c(OC)c1 (centres undefined),,inactive: -4.82%
CCOc1ccccc1NC(=S)N1CCN(c2cccc(OC)c2)CC1,"inconclusive [activator, single point]",
C/C(=N\NC(=S)NC(C)C)c1cccc([N+](=O)[O-])c1,"inconclusive [activator, partial curve, poor fit]",

Structure (SMILES),Potency,growth rescue
Cc1ccccc1CSCCNC(=O)CCSc1ccccc1,"inconclusive [activator, single point]",
Cc1ccc(S(=O)(=O)Nc2ccc(O)c3ncccc23)cc1,"inconclusive [activator, partial curve, poor fit]",
Cc1cccc(N2CCN(C(=O)CSc3ccsc3[N+](=O)[O-])CC2C)c1 (centres undefined),"inconclusive [activator, partial curve, poor fit]",
Cc1ccc(-n2ncc3c(NCCCN4CCOCC4)ncnc32)cc1C,,inactive: -16.4%
CCOc1ccccc1NC(=O)Cc1coc2ccc(C)cc12,"inconclusive [activator, single point]",
Cc1ccc2c(c1)c1c(n2CC2COC(C)(C)O2)C(=O)CCC1 (centres undefined),,inactive: 4.62%
COc1cccc(/C=C/C(=O)OCC(=O)Nc2nnc(-c3ccccc3)o2)c1,"inconclusive [activator, single point]",
COC(=O)c1ccc(C2Nc3c(C)cccc3-c3cc(C)nn32)cc1 (centres undefined),,inactive: 10.6%
Cc1cccc(C)c1OCCOC(=O)c1n[nH]c2ccccc12,"inconclusive [activator, single point]",
CNC(=S)N/N=C/c1cc(Br)cc(Br)c1O,"inconclusive [activator, full curve, poor fit]",
CCOC(=O)c1sc(NC(=O)CN2C(=O)NC3(CC(C)CC(C)(C)C3)C2=O)cc1C (centres undefined),"inconclusive [activator, partial curve, poor fit]",
O=C1NCCc2onc(-c3ccc(Br)cc3)c21,,inactive: -31.4%
C(=N\NC1=Nc2cccc3cccc1c23)/c1ccccn1,"inconclusive [activator, single point]",
O=C(NC(=S)Nc1cccc(Cl)c1Cl)C1CC1,"inconclusive [activator, full curve]",
S=C(NCCCc1ccccc1)NC1CCCCC1,"inconclusive [activator, partial curve, poor fit]",
OC(c1ccccc1)c1nc(-c2csc3ccccc23)cs1 (centres undefined),"inconclusive [activator, partial curve, poor fit]",
CC1=CC(C)(C)NC(=S)N1c1cc(C)cc(C)c1,"inconclusive [activator, single point]",
O=C(CCNC(=O)c1ccccc1Cl)Nc1nc(-c2ccccc2Cl)cs1,"inconclusive [activator, single point]",
Cn1ncc(=S)[nH]c1=S,"inconclusive [activator, partial curve, poor fit]",
COc1ccccc1NC(=S)NCc1ccc(Cl)cc1,"inconclusive [activator, partial curve]",
Cc1ccc(NC(=O)N2CCN(c3cc(-c4noc(C)n4)ccc3C)CC2)c(F)c1,,inactive: -9.87%
Cc1c(-c2nc(-c3ccc4c(c3)OCO4)no2)nnn1-c1ccc(C(C)C)cc1,,inactive: -2.1%
COC(=O)c1cc(C)nc2c1c(=O)nc(SCc1ccccc1C)n2C1CC1,,inactive: -21.3%
Cn1c(NCc2ccco2)nc2ccccc21,,inactive: 2.18%
